Experimental data: article PMC4336329 (PLoS ONE, 2015)
Hit rate of the full screen: of about 310,000 compounds, about 14,000 (4.5%) showed an effect of 50% or more. The effect is printed as a negative number. Some of the results follow.

target: human ether-à-go-go-related gene (hERG) potassium channel (human, UniProt Q12809); experiment: primary screen, population patch clamp on CHO cells stably expressing hERG
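Also: peak tail current of the secondary pulse compared with the same well before compound.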

human ether-à-go-go-related gene (hERG) potassium channel, sequence (Q12809 whole entry, looked up): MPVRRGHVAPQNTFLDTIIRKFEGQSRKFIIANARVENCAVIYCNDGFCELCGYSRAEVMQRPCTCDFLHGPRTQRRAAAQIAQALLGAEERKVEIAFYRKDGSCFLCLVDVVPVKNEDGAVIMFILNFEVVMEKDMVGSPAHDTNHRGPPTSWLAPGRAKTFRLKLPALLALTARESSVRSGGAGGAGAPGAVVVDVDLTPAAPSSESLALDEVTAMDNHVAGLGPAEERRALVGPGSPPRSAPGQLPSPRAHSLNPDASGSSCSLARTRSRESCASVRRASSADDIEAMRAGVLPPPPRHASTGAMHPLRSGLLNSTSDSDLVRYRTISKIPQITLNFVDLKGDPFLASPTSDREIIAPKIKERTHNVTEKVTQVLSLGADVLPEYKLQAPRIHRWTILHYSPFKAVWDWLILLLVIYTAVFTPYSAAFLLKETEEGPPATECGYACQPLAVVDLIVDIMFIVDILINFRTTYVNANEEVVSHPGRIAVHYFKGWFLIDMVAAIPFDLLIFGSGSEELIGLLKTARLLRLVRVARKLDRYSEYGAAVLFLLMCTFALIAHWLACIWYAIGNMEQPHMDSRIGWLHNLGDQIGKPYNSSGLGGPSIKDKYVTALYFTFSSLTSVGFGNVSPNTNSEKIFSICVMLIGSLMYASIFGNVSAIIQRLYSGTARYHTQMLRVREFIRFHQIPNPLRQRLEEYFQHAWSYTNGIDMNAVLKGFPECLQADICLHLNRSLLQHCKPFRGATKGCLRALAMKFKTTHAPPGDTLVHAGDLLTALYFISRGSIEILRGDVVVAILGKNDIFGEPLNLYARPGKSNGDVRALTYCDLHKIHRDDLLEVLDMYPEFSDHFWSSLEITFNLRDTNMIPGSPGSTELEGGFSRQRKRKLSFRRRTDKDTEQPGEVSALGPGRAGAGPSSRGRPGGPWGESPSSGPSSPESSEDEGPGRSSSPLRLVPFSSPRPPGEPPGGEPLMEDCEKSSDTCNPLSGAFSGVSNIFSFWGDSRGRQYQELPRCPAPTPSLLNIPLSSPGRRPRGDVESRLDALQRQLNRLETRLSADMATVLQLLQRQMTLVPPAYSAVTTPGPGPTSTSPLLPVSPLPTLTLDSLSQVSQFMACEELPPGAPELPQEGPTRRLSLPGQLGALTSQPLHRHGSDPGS

Structure (SMILES) | hERG current change (%, negative = inhibition) at 10uM
CC1(C)Cc2c(c(N3CCCC3)[nH]c(=S)c2C#N)CO1 | -5.11%
CC1CN(C(=O)c2cc([N+](=O)[O-])cc([N+](=O)[O-])c2)CC(C)O1 (centres unmarked) | 25.5%
CNc1ccccc1-n1ccc(-c2ccccc2)n1 | 1.14%
CCOc1ccc(C(=O)N(Cc2ccc(N(C)C)cc2)C2CCS(=O)(=O)C2)cc1 (centres unmarked) | -11.3%
Cc1ccc(CCNC(=O)C2CCN(S(=O)(=O)c3ccc4c(c3)oc(=O)n4C)CC2)cc1 | 9.19%
O=C(NNC(=O)c1ccc(-n2cncn2)c([N+](=O)[O-])c1)c1ccc(Cl)cc1 | -9.94%
CCN(CC)CCOC(=O)c1ccc(NC(=O)CNC(=O)c2ccccc2)cc1.Cl | 26.9%
CCOC(=O)Cc1c(Cl)c2ccccc2[nH]c1=O | 20%
O=C(O/N=C(\c1ccccc1)c1ccccn1)c1ccc(Cl)c(Cl)c1 | 15.3%
CC(SCC(=O)Nc1ccc(F)cc1)c1nc2ccccc2c(=O)[nH]1 (centres unmarked) | 14.8%
Cc1cc2nc(CCN(C(=S)NCC(C)C)C3CCCC3)[nH]c2cc1C | -10.1%
CCOC(=O)N1CCN(c2c(N3CCN(c4ccc(F)cc4)CC3)c(=O)c2=O)CC1 | -73.4%
CCOC(=O)C1(CCOC)CCN(C(C)CCc2ccc(OC)cc2)CC1 (centres unmarked) | -71.1%
Cc1ccc(NC(=O)CC(=O)Nc2ccc(C)cc2C)c(C)c1 | 7.17%
CCN(CC)CCNC(=O)c1cc2c(s1)-c1ccccc1SC2 | -77.8%
Cc1nc(-c2ccc(C(F)(F)F)cc2)sc1C(=O)NN | -34.7%
O=C(c1nnc(Cc2ccc(Cl)cc2)o1)N1CCOCC1 | 10.7%
COc1cc(NC(=O)c2cccs2)c(C(=O)OCC(=O)NC(=O)NC(C)(C)C)cc1OC | 3.92%
COc1ccccc1-c1c(C)oc2c(CN3CCOCC3)c(O)ccc2c1=O | -2.69%
CCCCN1C(=O)C(=O)N(CC(=O)N2CCc3ccccc32)C1=O | 5.05%
CC(=O)NC(c1ccc(F)cc1)c1cccnc1 (centres unmarked) | -5.47%
Nc1ccc(-c2nc3c(Cl)cc(N)cc3[nH]2)cc1 | 20.7%

Structure (SMILES) | hERG current change (%, negative = inhibition) at 10uM
COc1cccc(OC)c1NC(=O)Cn1nc(-c2ccc3c(c2)OCCO3)ccc1=O | 3.82%
CC(C)(C)OC(=O)N1CCC(CC2CC(c3ccncc3)=NO2)(C(=O)O)CC1 (centres unmarked) | 8.83%
CN(Cc1nc2ccccc2c(=O)[nH]1)C(=O)c1cccc(S(=O)(=O)N2CCCC2)c1 | -18%
CN(C)/C=C1\C(=O)N(c2ccc(Cl)cc2)CS1(=O)=O | 0.27%
Cc1cc2nc(C)n3c4ccccc4nc3n2n1 | -0.0826%
COc1ccc(/C(N)=N/OC(=O)c2cccc([N+](=O)[O-])c2C)cc1OC | -9.25%
CCOC(=O)c1cnc(SC2CC(=O)N(c3ccc(C)cc3)C2=O)nc1N (centres unmarked) | -19.4%
O=C(N/N=C\CCc1ccccc1)c1ccco1 | 3.8%
CCNC(=O)COC(=O)/C=C/c1cccs1 | 31.7%
CC(=O)c1c(C)n(-c2ccc(C)cc2C)c2ccc(O)cc12 | 12.9%
CSc1ccc(CN(C)C(C)C(=O)NCc2ccccc2)cc1 (centres unmarked) | -32.8%
CCS(=O)(=O)c1ccc2c(c1)N(S(=O)(=O)c1ccc(C)cc1)CC(C(=O)O)O2 (centres unmarked) | 9.27%
CC(C)c1ccc(Nc2nnc(SCC(=O)c3nnc(-c4ccccc4)o3)s2)cc1 | 22.2%
CCCCCOc1ccc(C(=O)OC(C)C(=O)NCc2ccco2)cc1 (centres unmarked) | -24.8%
O=C(COC(=O)CSCC(=O)N1CCCCC1)NCc1ccc(F)cc1 | 7.39%
COC(=O)c1c(C)oc(C)c1S(=O)(=O)NC(c1ccccc1)c1ccccc1 | 17.2%
Cn1nc(C(=O)OCc2ccc(Br)cc2F)c2ccccc2c1=O | 6.86%
COc1ccc(-c2csc(NC(=O)CSc3nc(SC)ns3)n2)cc1 | 5.06%
O=C(COC(=O)/C=C/c1ccc2c(c1)OCO2)Nc1ccccc1 | 41.3%
CCOc1ccc2c(c1)C(c1ccccc1)=NNC(c1ccccc1)=N2 | 6.08%
COCCNC(=O)C(c1ccc(OC)cc1)N(CCOC)C(=O)CCC(=O)Nc1nccs1 (centres unmarked) | 5.47%
CCC(=O)c1ccc(OCC(=O)N2CCc3cc(OC)c(OC)cc3C2)cc1 | -33.2%
